Results published in PubChem BioAssay AID588855 (National Center for Advancing Translational Sciences (NCATS), 2011).
Out of some 410,000 compounds screened, about 5,000 (1.2%) were called active. The shares of active, inactive and inconclusive entries below differ from those in the screen. Calls follow the shape of the dose curve; as a rule, active = well fitted inhibition curve with a large enough effect; inconclusive = small, poorly fitted or top-dose-only effect; inactive = no such curve, though single readings can be large or run the other way. Potencies of inconclusive entries are doubtful fits and often do not repeat.

Test: qHTS for Inhibitors of TGF-b; also: nearly all actives have a fitted effect of over 65% in size
Settings: HepG2 CAGA-GFP TGF-b/SMAD3 reporter, GFP fluorescence, 18 h, TGF-beta stimulated, 500 pg/mL final; series mostly up to 46.1 µM
Outline: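 HEPG2 CAGA-GFP, 1000 cells/well; 2 h settle, 37 C; cpd via pin tool; TGF-b 500 pg/mL final; 18 h, 37 C; GFP imaging ex488/em500-530; %Activity normalised to -TGF-b and +DMSO controls; CRC fit, curve class.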
Potency is read from the fitted curve at half-maximal effect; tags tell the direction and shape of the fitted curve.

Compound	Potency
Cc1ccc(C)c(OCC(=O)N/N=C/c2c(C)nn(-c3ccccc3)c2Cl)c1C	inactive
CC1CCCN(C(=O)COC(=O)COc2ccc(Cl)cc2)C1 (stereo not drawn)	inconclusive: 3.55 µM [inhibitor, partial curve, poor fit]
Cn1c(SCC(=O)Nc2sccc2C#N)nnc1C1CC1	inconclusive: 0.708 µM [inhibitor, full curve]
COc1ccc(-c2noc(-c3cccnc3N3CCN(c4ccc(OC)cc4)CC3)n2)cc1	inconclusive: 3.55 µM [inhibitor, single point]
CCCCN(CC)C(=O)CSc1c2c(nc3ccc(Cl)cc13)CCCC2	inconclusive: 17.8 µM [inhibitor, partial curve, poor fit]
Cc1oc2ccc(O)cc2c1C(=O)OC(C)C	inconclusive: 0.447 µM [inhibitor, full curve]
Cc1ccc(-c2nc(C#N)c(NCc3ccco3)o2)cc1	inconclusive: 6.31 µM [inhibitor, single point]
CN(Cc1ccc(Cl)cc1)C(=O)c1ccc(S(=O)(=O)NCc2ccco2)cc1	inconclusive: 7.08 µM [inhibitor, full curve]
CCCCS(=O)(=O)/C=C\C=C/S(=O)(=O)CCCC	inconclusive: 14.1 µM [inhibitor, single point]
COc1cccc(NC(=O)c2ccc(-c3nc(COc4ccccc4)c(C)o3)cc2)c1	inconclusive: 3.16 µM [inhibitor, full curve, poor fit]
Cc1cccc(Cn2nc(-n3cccc3)c3c(C)cc(C)nc32)c1	inconclusive: 35.5 µM [inhibitor, single point]
COc1ccc(CC(=O)OC(C)C(=O)NC2CCCCC2C)cc1 (stereo not drawn)	inactive
COc1ccc(Cn2cc(S(=O)(=O)c3ccc(Cl)cc3)c(=O)c3cc4c(cc32)OCO4)cc1	inconclusive: 3.16 µM [inhibitor, single point]
CC(CCc1ccccc1)NC(=O)COC(=O)CC1CC2CCC1C2 (stereo not drawn)	inconclusive: 5.62 µM [inhibitor, single point]
C/C(=N/NC(=O)C(O)(c1ccccc1)c1ccccc1)c1ccc([N+](=O)[O-])o1	inconclusive: 20 µM [inhibitor, single point]
Cn1c(SCc2ccccc2C#N)nc2ccccc2c1=O	inactive
COc1ccc(-c2oc3ncn(CCN4CCOCC4)c(=N)c3c2-c2ccc(OC)cc2)cc1	inconclusive: 35.5 µM [inhibitor, single point]
Cc1cccc(NC(=O)Cn2cc(C(=O)c3ccco3)c3ccccc32)c1	inconclusive: 22.4 µM [inhibitor, single point]
CCOC(=O)c1sc(NC(=O)c2cccc(S(=O)(=O)N3c4ccccc4CC3C)c2)cc1C (stereo not drawn)	inconclusive: 3.55 µM [inhibitor, partial curve, poor fit]
CN(C)c1ccc(-c2ccnc3c2CC(C)(C(=O)NCc2cccc(Cl)c2)O3)cc1 (stereo not drawn)	inconclusive: 35.5 µM [inhibitor, single point]
CN(CC(=O)Nc1ccc(S(=O)(=O)N2CCCC2)cc1)Cc1ccc(Cl)cc1	inconclusive: 11.2 µM [inhibitor, partial curve, poor fit]

Compound	Potency
COc1ccc(C)c2sc(NC(=O)c3cccc(N4C(=O)CCC4=O)c3)nc12	inactive
O=C1CCN(Cc2ccc(O)cc2)CCN1[C@H](CO)Cc1ccccc1	inconclusive: 6.31 µM [inhibitor, partial curve]
CCN(CC)c1ccc(CNc2ccc3c(c2)ncn3C(C)(C)C)cc1	inactive
CC1(C(=O)NS(=O)(=O)c2cccc(Cl)c2)CCN1C(=O)c1cccc2ccccc12 (stereo not drawn)	inactive
CCn1c(CN2CCC(C)CC2)nc2cc(NC(=O)COc3ccc(Cl)c(C)c3)ccc21	active: 3.98 µM
Cc1cc(C)nc(NC(=O)c2cc([N+](=O)[O-])cc([N+](=O)[O-])c2)n1	inconclusive: 1 µM [inhibitor, full curve, poor fit]
CCCOC(=O)c1ccc(Nc2nc(C)cc(=O)[nH]2)cc1	inconclusive: 35.5 µM [inhibitor, single point]
COc1ccc(-c2nc(CSCC(=O)NCCc3ccccc3)c(C)o2)cc1	inconclusive: 11.2 µM [inhibitor, partial curve, poor fit]
CCc1ccc(-n2c(SCc3ccccc3Cl)nc3[nH]ncc3c2=O)cc1	inconclusive: 22.4 µM [inhibitor, single point]
COc1cccc(N2CCN(C(=O)c3cc4cc5cc(C)ccc5nc4s3)CC2)c1	inconclusive: 25.1 µM [inhibitor, single point]
CN1CCOCCOc2ccccc2OCCOCC1	inactive
Cc1oc(-c2ccccc2Cl)nc1Cn1c(SCc2cccc(F)c2)nc2cccnc21	inconclusive: 35.5 µM [inhibitor, single point]
Cc1ccc(CCNS(=O)(=O)c2ccc3c(c2)CC(C)N3C(=O)C2CCC2)cc1 (stereo not drawn)	inconclusive: 22.4 µM [inhibitor, partial curve, poor fit]
O=C(COc1ccc(Br)cc1)NC(=S)Nc1ccccc1N1CCOCC1	inconclusive: 20 µM [inhibitor, single point]
Cc1ccc(-n2c(=O)[nH]c3cc(C(=O)NCc4ccccc4)ccc3c2=O)cc1	inactive
Clc1cccc(CSc2nnc([C@@H]3CCCN3)o2)c1	inactive
COc1cccc(/C=C/C(=O)c2ccc(C)c([N+](=O)[O-])c2)c1	inconclusive: 22.4 µM [inhibitor, single point]
COc1ccc(S(=O)(=O)N2CCN(C(=O)c3sccc3-c3ccccc3)CC2)cc1	inconclusive: 3.16 µM [inhibitor, partial curve]
N#CC1=C(N)C2=CCCC[C@H]2[C@H](c2ccc(Br)cc2)C1(C#N)C#N	inconclusive: 35.5 µM [inhibitor, single point]
CCCCN1CC(COCc2ccccc2)Oc2cccc(Oc3cc(C)c(C)c(C)c3)c2S1(=O)=O (stereo not drawn)	inconclusive: 0.631 µM [inhibitor, full curve, poor fit]
Cc1ccc(S(=O)(=O)N2CC3(O)CN(C(=O)OC(C)C)N(C(=O)OC(C)C)CC3(OC(=O)NCC3CCCCC3)C2)cc1 (stereo not drawn)	inconclusive: 22.4 µM [inhibitor, single point]

Compound	Potency
C#CCOCCOCCOCCNc1nc(N2CCOCC2)nc(N2CCN(C(=O)Cn3cc(CCCCN)nn3)CC2)n1	inconclusive: 6.31 µM [inhibitor, single point]
Fc1cccc(-c2nnn3c2nc(Cl)c2ccccc23)c1	inconclusive: 6.31 µM [inhibitor, single point]
CCN(CC)CCn1c(NS(=O)(=O)c2ccc(Cl)cc2)nc2ccccc21	inactive
C[C@@H]1COC(=O)[C@@H](Cc2ccc(F)cc2)C/C=C\C[C@@H](CC(=O)N[C@H](CO)Cc2ccccc2)C(=O)N1	inconclusive: 4.47 µM [inhibitor, full curve, poor fit]
CC(C)CNC(=O)N1[C@H](c2cccs2)[C@@H](C)C(=O)[C@@H](C)[C@@H]1c1cccs1	inconclusive: 0.178 µM [inhibitor, full curve, poor fit]
CCn1c(=N)n(CCOc2ccc(Br)cc2)c2ccccc21	active: 8.91 µM
Cc1c(C(=O)O)oc2ccc(S(=O)(=O)N3CCCC3)cc12	inactive
O=C1[C@@H]2Cc3c([nH]c4ccccc34)C(c3ccccc3)N2C(=O)CN1C1CCN(Cc2ccccc2)CC1 (stereo partly drawn)	inconclusive: 12.6 µM [inhibitor, partial curve, poor fit]
Cc1cccc(C(=O)N2CCC(=O)N(C(COCc3cccc(Cl)c3)Cc3ccccc3)CC2)c1 (stereo not drawn)	inconclusive: 31.6 µM [inhibitor, single point]
C=CCc1c(C)nc(-c2ccccc2)nc1N/N=C/c1ccccc1	inconclusive: 11.2 µM [inhibitor, partial curve, poor fit]
COc1cc(-n2ccnc2SC)c(Cl)cc1Cl	inconclusive: 5.62 µM [inhibitor, single point]
CC(=O)N1N=C(c2ccccc2)CC1c1ccc(F)cc1 (stereo not drawn)	inactive
COc1cccc2sc3cc(NCc4ccc(C)o4)ccc3c(=O)c12	inconclusive: 35.5 µM [inhibitor, single point]
O=C(COCc1cc(-c2cccs2)on1)N1CCN(c2cccc(Cl)c2)CC1	inactive
COc1ccccc1N(CC1CO1)S(=O)(=O)c1ccccc1 (stereo not drawn)	inconclusive: 0.355 µM [inhibitor, partial curve, poor fit]
CCn1nc(C)c(CCN(C)C(=O)Nc2cc(OC)c(OC)c(OC)c2)c1C	inconclusive: 3.98 µM [inhibitor, single point]
CCOc1ccc(S(=O)(=O)N2CCN(CC(O)COc3cccc([N+](=O)[O-])c3)CC2)cc1 (stereo not drawn)	inconclusive: 5.01 µM [inhibitor, full curve]
O=C(NNc1cc(C(F)(F)F)nc2ccccc12)Nc1cccc(Cl)c1	inconclusive: 35.5 µM [inhibitor, single point]
COc1ccc(CCN2C(=S)N(C)C(=O)C2CC(=O)Nc2ccc(OC)cc2)cc1 (stereo not drawn)	inactive
OC(Cc1cccc(Br)c1)c1ncc(-c2cccc(C(F)(F)F)c2)[nH]1 (stereo not drawn)	inconclusive: 35.5 µM [inhibitor, single point]
CCCN(CCC)C(=S)NC(=O)c1ccc(-c2ccccc2)cc1	inconclusive: 10 µM [inhibitor, partial curve, poor fit]
